From PubChem BioAssay AID1508624 (National Center for Advancing Translational Sciences (NCATS), 2021)
Hit rate of the full screen: of about 48,000 compounds, about 120 (0.25%) were called active. Another 4% or so got no clear call; they are omitted. The call rests on the fitted dose curve; in most records, active means well fitted activation curve with a large enough effect; inconclusive means small, poorly fitted or top-dose-only effect, or another doubt; inactive means no such curve, though single readings can be large or run the other way. Some of the results follow.

assay: Primary qHTS for Identification of Small Molecule Activators of Huntingtin-Antisense Promoter Activity; conditions: HEK293 HTT-AS promoter firefly luciferase reporter (activity 0% = vehicle and -100% = no light), 24 h; series mostly up to 57.5 µM; activity change, positive = activation: at the top concentration; further: nearly all actives have a fitted effect of over 55% in size
How it was run: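 Quantitative HTS used concentration series of up to 57.5 uM final on HEK293 luciferase reporter cells, 24 h at 37 degrees C. Readout was Dual-Glo firefly luminescence.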

| SMILES | activity change, positive = activation |
| --- | --- |
| CC(C)Cn1c(=O)c2ccccc2n2c(CCC(=O)Nc3cccc(Cl)c3)nnc12 | inactive: -0.442% |
| CC(=O)c1cc(-c2ccccc2)n(CC(=O)NC2CCCCC2)c1C | inactive: -7.51% |
| CCOc1ccccc1/C=C/c1onc(C)c1S(=O)(=O)N1CCC(C(=O)N(CC)CC)CC1 | inactive: -38.5% |
| OC(CCN1CCCC1)(c1ccccc1)C1CCCCC1 (stereo unspecified) | inactive: -17% |
| O=C1Nc2c(c(=O)[nH]c(=O)n2-c2ccccc2)C1(NS(=O)(=O)c1ccc(Cl)cc1)C(F)(F)F (stereo unspecified) | inactive: -7.41% |
| CCCOc1ccc(-c2nn(-c3ccccc3)cc2C2NC(=O)NC(C)=C2C(=O)OC(C)C)cc1 (stereo unspecified) | inactive: -37.2% |
| Cc1ccc(NC(=O)Cn2c(=O)n(CCCCCC(=O)NCc3ccc(F)cc3)c(=O)c3sccc32)cc1C | inactive: -6.84% |
| O=C(Cc1ccc(F)cc1)NC1CC(=O)N(c2ccccc2)C1 (stereo unspecified) | inactive: -12.6% |
| CCOc1ccc(Cn2nnc3c(=O)[nH]c(C4CCN(C(=O)c5ccccc5)CC4)nc32)cc1 | inactive: -23.6% |
| COC(=O)c1ccc(NC(C)=O)cc1OC | inactive: -5.19% |
| CCC(CC)c1nn2c(=O)cc(COc3ccc(NC(=O)c4ccccc4Cl)cc3)nc2s1 | inactive: -15.4% |
| Cc1ccccc1CNC(=O)C1CCN(c2nn3cc(-c4ccc(F)cc4)nc3s2)CC1 | inactive: 17% |
| CC1CCCCN1CCCNC(=O)Cn1ncc2c([nH]c3ccccc32)c1=O (stereo unspecified) | inactive: -1.18% |
| Cc1cccc(CNS(=O)(=O)c2ccc3[nH]c(=O)ccc3c2)c1 | inactive: -12.6% |
| COc1ccc(C)cc1NC(=O)c1cc(S(=O)(=O)NC2CCCCCC2)ccc1F | inactive: -41.8% |
| COc1ccc(Cn2c(=O)[nH]c3cc(C(=O)N4CCN(c5cc(C)ccc5C)CC4)ccc3c2=O)cc1 | inactive: -30% |
| CC(C)Oc1ccc(CNC(=O)CCCn2c(=O)c3cccn3c3ccccc32)cc1 | inactive: -31.9% |
| COc1ccc(-c2cc(C(F)(F)F)c(C#N)c(SCC(=O)Nc3ccc(F)cc3)n2)cc1 | inactive: -15.6% |
| Cc1ccc(S(=O)(=O)N2CCCc3cc(NS(=O)(=O)c4ccc(F)c(C)c4)ccc32)cc1 | inactive: -45.2% |
| Cc1ccc(NCc2cccn2-c2nnc(N3CCC(C(=O)NC(C)C)CC3)s2)cc1 | inactive: -37.8% |
| COc1ccc(NC(=O)Cn2c(=O)oc3cc(S(=O)(=O)NC4CCCC4)ccc32)cc1OC | inactive: -24.1% |
| CCCNC(=O)c1ccc2c(c1)ncn2-c1ccc(C)cc1C | inactive: -9.94% |
| Cn1c(N2CCCCS2(=O)=O)nc(C(=O)NCc2ccc(F)cc2)c(O)c1=O | inactive: 5.81% |
| CCOC(=O)c1c(NC(=O)CS(=O)(=O)c2ccc(C)cc2)sc2c1CCCCC2 | inactive: -23.6% |
| CCc1ccc(CNC(=O)c2ccc3c(c2)N=C(C)c2cc(C)ccc2S3)cc1 | inactive: -27.9% |
| CC(CN(C)C)CN1c2ccccc2CCc2ccccc21 (stereo unspecified) | inactive: -15.2% |
